# Screen size: about 410,000 compounds; about 6,400 (1.6%) were called active. Inconclusive means that the source gave no clear call. Such entries were picked first, then a sample of the others. The call rests on the fitted dose curve; in most records, active means well fitted inhibition curve with a large enough effect; inconclusive means small, poorly fitted or top-dose-only effect; inactive means no such curve, though single readings can be large or run the other way. Potencies of inconclusive entries are left out as doubtful fits.
# Biological target: Glucagon-like peptide 1 receptor (Homo sapiens) (UniProt P43220)
# Experiment: qHTS of GLP-1 Receptor Inverse Agonists (Inhibition Mode); further: nearly all actives have a fitted effect of over 55% in size
# Conditions: HEK293 GLP-1R CRE-luciferase, luminescence, 24 h, GLP-1R form is constitutively active; activity change, negative = inhibition: at 38.3 µM (top of the series) unless noted
# Method in brief: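 Inverse agonists were sought by their lowering of basal cAMP reporter luciferase output in HEK293 cells stably carrying constitutively active human GLP-1R, after 24 h compound treatment.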
# On the % scale 0 is the no-effect control and ±100 the full control effect; potency means the concentration at half of the fitted maximal effect; tags describe the fitted curve by direction and shape.
# Sequence of UniProt P43220 (P43220 whole entry, looked up): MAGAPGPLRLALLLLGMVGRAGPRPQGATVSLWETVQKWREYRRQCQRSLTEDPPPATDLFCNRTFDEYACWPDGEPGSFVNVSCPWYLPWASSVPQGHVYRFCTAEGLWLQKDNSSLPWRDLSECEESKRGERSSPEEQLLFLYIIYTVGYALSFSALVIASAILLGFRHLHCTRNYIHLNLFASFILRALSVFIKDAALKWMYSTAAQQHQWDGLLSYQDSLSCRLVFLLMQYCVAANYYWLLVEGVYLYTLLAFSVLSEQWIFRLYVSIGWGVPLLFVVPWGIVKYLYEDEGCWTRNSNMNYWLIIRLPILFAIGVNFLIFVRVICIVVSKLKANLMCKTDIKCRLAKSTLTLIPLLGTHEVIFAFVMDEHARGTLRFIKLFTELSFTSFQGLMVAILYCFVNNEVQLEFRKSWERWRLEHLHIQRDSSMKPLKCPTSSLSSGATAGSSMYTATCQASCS
SMILES,Potency,"activity change, negative = inhibition"
CC1CCCC(NC(=O)/C=C/c2c(F)cccc2Cl)C1C (stereo unspecified),"inconclusive [inhibitor, single point]",–
COc1cccc(N2CC(NC(=O)c3ccc4ccccc4c3)CC2=O)c1 (stereo unspecified),"inconclusive [inhibitor, single point]",–
C#CCN1C(=O)S/C(=C\c2ccc(-c3ccc(Cl)c(C(=O)O)c3)o2)C1=O,–,inactive: 11.9%
CC(C)CC1NC(=O)N(CC(=O)N2CCN(S(=O)(=O)c3ccc4ccccc4c3)CC2)C1=O (stereo unspecified),"inconclusive [inhibitor, full curve]",–
O=C(CN1C(=O)/C(=C/c2ccc(C(F)(F)F)cc2)Sc2ccccc21)NCCCN1CCOCC1,"inconclusive [inhibitor, single point]",–
Cc1ccn2c(NC(=O)c3cccc(Cl)c3)c(-c3ccccc3)nc2c1,"inconclusive [inhibitor, single point]",–
N#Cc1c[nH]n2c(NC3CCCC3)c(-c3cccc(Br)c3)nc12,–,inactive: 8.69%
COc1ccccc1N=C1NC(=O)/C(=C/c2ccc(N(C)C)cc2)S1,"inconclusive [inhibitor, full curve, poor fit]",–
c1ccc(-c2cnc(CSc3nnc4ccccn34)o2)cc1,"inconclusive [inhibitor, single point]",–
COC(=O)c1sccc1S(=O)(=O)N(CC(=O)NCc1ccc(C)cc1)c1ccccc1,–,inactive: 14.7%
CCN(CC)CCNC(=O)c1ccc(NC(=O)c2cccc(S(=O)(=O)Nc3ccc(C)cc3)c2)cc1,"inconclusive [inhibitor, single point]",–
O=C(O)c1ccc(NC2=C/C(=N/S(=O)(=O)c3cccs3)c3ccccc3C2=O)cc1,"inconclusive [inhibitor, single point]",–
CCCCn1nc(C(=O)Nc2cccc(C(=O)NC3CC3)c2)c2ccccc2c1=O,"inconclusive [inhibitor, single point]",–
O=C(NNC(=O)c1cc(-c2ccncc2)nc2ccccc12)Nc1ccc(F)cc1,"inconclusive [inhibitor, partial curve, poor fit]",–
CC(=O)c1ccc(OCC(O)CN2CCN(S(=O)(=O)c3c(C)c(C)cc(C)c3C)CC2)cc1 (stereo unspecified),"inconclusive [inhibitor, single point]",–
COc1ccccc1CNc1ccc(Br)cn1,"inconclusive [inhibitor, partial curve, poor fit]",–
Cc1cc(N2C(=O)C(O)=C(C(=O)c3cc4ccccc4o3)C2c2cccc(Br)c2)no1 (stereo unspecified),–,inactive: -46.5%
O=C(Nc1ccc2c(c1)OCCO2)C(CCc1ccccc1)N1CCN(c2ccc(F)cc2)CC1 (stereo unspecified),"inconclusive [inhibitor, single point]",–
CCOc1ccc(N=NC2C(=O)N(C(N)=S)N=C2C)cc1 (stereo unspecified),"inconclusive [inhibitor, full curve, poor fit]",–
Cc1onc(-c2ccccc2)c1C(=O)Nc1ccc(S(=O)(=O)N2CCCCC2)cc1,"inconclusive [inhibitor, single point]",–
Cc1oc(-c2ccc(C(=O)NCCC(C)C)cc2)nc1CS(=O)(=O)c1ccccc1,–,inactive: -7.76%
COc1cc(C(=O)Nc2ccc(C(=O)c3cccs3)cc2)cc(OC)c1OC,"inconclusive [inhibitor, single point]",–

SMILES,Potency,"activity change, negative = inhibition"
CC(C)CCn1c(=O)c2cccnc2n(CC(=O)Nc2ccccc2)c1=O,–,inactive: 0%
CCNS(=O)(=O)c1ccc(NC(=O)c2ccccc2OCC)cc1,–,inactive: 70.1%
Cn1c(C=O)c(C#CC(C)(C)O)c2ccccc21,–,inactive: -16.9%
Cc1ccccc1CN1CCN(CC2CC3C=CC2C3)CC1 (stereo unspecified),"inconclusive [inhibitor, partial curve, poor fit]",–
O=C(NCC(c1ccc2c(c1)OCO2)N1CCN(c2ccccc2)CC1)C(=O)Nc1ccc(F)cc1 (stereo unspecified),–,inactive: 2.98%
CN(C)c1cc[n+](CC(=O)c2ccc(-c3ccccc3)cc2)cc1,"inconclusive [inhibitor, full curve]",–
Cc1ccc(C)c(NS(=O)(=O)c2cc(C(=O)N3CCc4ccccc4C3)ccc2Cl)c1,"inconclusive [inhibitor, single point]",–
COc1ccccc1C1(CCNS(=O)(=O)c2ccc(C)cc2)CCOC(C(C)C)C1 (stereo unspecified),"inconclusive [inhibitor, single point]",–
O=C(NCC(c1cccnc1)N1CCN(c2ccccc2F)CC1)c1ccco1 (stereo unspecified),–,inactive: 5.88%
O=C(Nc1ccccc1)OCc1cc(-c2ccc(Cl)cc2)on1,"inconclusive [inhibitor, single point]",–
CCOc1ccccc1Nc1ccnc2cc(Cl)ccc12,"inconclusive [inhibitor, partial curve, poor fit]",–
CCOCCc1nn2c(=O)cc(COC(=O)c3ccccc3NC(=O)c3ccccc3F)nc2s1,–,inactive: -2.51%
O=C1NC(c2ccccc2)=C(c2nc3ccccc3s2)C(c2ccc(F)cc2)N1 (stereo unspecified),"inconclusive [inhibitor, single point]",–
Nc1cc(S(=O)(=O)Nc2ccc(Br)cc2)ccc1Cl,"inconclusive [inhibitor, single point]",–
CCC(=O)c1ccc(OCC(=O)Nc2nc(C)cs2)cc1,–,inactive: 3.33%
CCOC(=O)N1CCN(S(=O)(=O)c2ccc(F)c(C(=O)Nc3ccc(C(C)C)cc3)c2)CC1,"inconclusive [inhibitor, partial curve, poor fit]",–
COC(=O)CCS(=O)(=O)c1nc(-c2ccccc2)cc(C(F)(F)F)n1,"inconclusive [inhibitor, single point]",–
O=C(Oc1ccccc1C(=O)N1CCOCC1)c1cccc(Br)c1,–,inactive: 2.16%
C/C(=N\NC(=O)c1cccc2ccccc12)c1ccccn1,"inconclusive [inhibitor, full curve, poor fit]",–
CS/C(=C\[N+](=O)[O-])Nc1ccc(OC(F)(F)F)cc1,"inconclusive [inhibitor, partial curve, poor fit]",–
COc1ccc(/C=C/C(=O)NNc2c(F)c(F)cc(F)c2F)cc1OC,–,inactive: 14.8%
Cc1ccccc1NS(=O)(=O)c1ccc(C(=O)N2CCN(c3ccccn3)CC2)cc1,"inconclusive [inhibitor, partial curve]",–

SMILES,Potency,"activity change, negative = inhibition"
CN(C)c1ccc(CN(Cc2ccco2)C(=O)COc2ccc(F)cc2)cc1,"inconclusive [inhibitor, single point]",–
COc1cc(C(=O)NC(C)C2CC3CCC2C3)ccc1OC(F)F (stereo unspecified),"inconclusive [inhibitor, partial curve, poor fit]",–
COc1ccc(/C=N/Nc2nncc3ccccc23)cc1,–,inactive: 3.32%
CCN(CC)Cc1ccccc1CNC(=O)c1cccc(S(=O)(=O)Nc2ccc3c(c2)OCO3)c1,"inconclusive [inhibitor, single point]",–
O=C(Cn1nc(CNc2ccc(Br)cc2)[n+]2c1CCCCC2)c1ccc([N+](=O)[O-])cc1,"inconclusive [inhibitor, single point]",–
NS(=O)(=O)c1ccc(NC(=O)C(Sc2ccccc2)c2ccccc2)cc1 (stereo unspecified),"inconclusive [inhibitor, partial curve, poor fit]",–
Cc1ccc(NC(=O)N2CC3CCCN3c3ccccc32)cc1C (stereo unspecified),"inconclusive [inhibitor, partial curve, poor fit]",–
Cc1ccc(C2=NN(S(=O)(=O)c3ccccc3)C(c3ccco3)C2)cc1 (stereo unspecified),"inconclusive [inhibitor, partial curve]",–
CSC(=S)NN=C(C)c1cccc(C)n1,"inconclusive [inhibitor, full curve, poor fit]",–
O=C(Nc1nc(-c2ccccn2)cs1)c1ccccc1-n1cnnn1,"inconclusive [inhibitor, partial curve, poor fit]",–
O=C(O)c1ccccc1C1c2ccccc2Oc2ccccc21,"inconclusive [inhibitor, partial curve, poor fit]",–
Cc1c(OCC(=O)N[C@@H](Cc2ccccc2)C(=O)O)ccc2c3c(c(=O)oc12)CCC3,–,inactive: 5.82%
O=c1c2c(nc3cc(-c4ccc(F)cc4)[nH]n13)CCCC2,"inconclusive [inhibitor, partial curve, poor fit]",–
COc1cc(N=Nc2ccc3ccccc3c2)ccc1O,"inconclusive [inhibitor, single point]",–
CNC[C@@H](C)NC[C@@H](Cc1ccccc1)NCCc1ccccc1,"inconclusive [inhibitor, single point]",–
O=C(CCn1c(=O)oc2ccccc21)N(Cc1ccccc1)c1ccccc1,"inconclusive [inhibitor, partial curve, poor fit]",–
COc1ccc(NS(=O)(=O)c2ccc(NC(=O)c3ccc(N(C)S(C)(=O)=O)cc3)cc2)c(OC)c1,–,inactive: 5.59%
O=C(CCCN1C(=O)/C(=C\c2ccccc2)SC1=S)Nc1ccccc1O,"inconclusive [inhibitor, single point]",–
CC(Cc1ccc(Cl)cc1)N1CCC(n2nccc2NC(=O)C2CCCC2)CC1 (stereo unspecified),"inconclusive [inhibitor, partial curve, poor fit]",–
Clc1ccc(/C=N/Nc2nc(Cl)nc3ccccc23)cc1,–,inactive: 0%
CCOC(=O)c1cc(OC(=O)c2cccc([N+](=O)[O-])c2)n(-c2ccccc2)n1,–,inactive: -6.99%
COc1ccc(Br)cc1CNC(=O)C1CCN(c2nnc(-n3cccc3CNc3ccc(C)cc3)s2)CC1,"inconclusive [inhibitor, partial curve, poor fit]",–

# — PubChem BioAssay AID624417 (National Center for Advancing Translational Sciences (NCATS), 2012)
